{
  "source": "PubChem BioAssay AID686979",
  "about": "(National Center for Advancing Translational Sciences (NCATS), 2013)",
  "note": "In all, about 420,000 compounds went through this assay and about 50,000 (12%) were called active. Inconclusive means that the source gave no clear call. Such entries were picked first, then a sample of the others. Calls follow the shape of the dose curve; as a rule, active = well fitted inhibition curve with a large enough effect; inconclusive = small, poorly fitted or top-dose-only effect; inactive = flat fitted curve, though single readings scatter. No potency is given beside an inconclusive call; the fits are too rough. % is scaled to controls: 0 for no effect and ±100 for the full control effect; potency is read from the fitted curve at half-maximal effect; tags tell the direction and shape of the fitted curve.",
  "data": [
    {"assay": "qHTS for Inhibitors of human tyrosyl-DNA phosphodiesterase 1 (TDP1): qHTS in cells in presence of CPT; also: nearly all actives have a fitted effect of over 55% in size", "conditions": "chicken DT40 Tdp1-/-;hTDP1 cells + 20 nM CPT, ATP luminescence, 48 h; activity change, negative = growth inhibition: at 46.2 µM (top of the series) unless noted", "in_short": "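Chicken DT40 Tdp1-/- cells complemented with human TDP1, 400 cells/well, exposed to compounds plus 20 nM camptothecin for at least 48 h at 37 C; viability read as ATP content by CellTiter-Glo luminescence.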", "values": [
      {"compound": "Cc1ccccc1OCCCSc1nc2ccccc2[nH]1", "Potency": "inconclusive [inhibitor, single point]"},
      {"compound": "CN(C)CCNc1ncnc2c1sc1nc(-c3ccccc3)c3c(c12)CCCC3", "Potency": "inconclusive [inhibitor, single point]"},
      {"compound": "O=C(Nc1nnc2n1CCS2)c1ccccc1", "Potency": "inconclusive [inhibitor, single point]"},
      {"compound": "Cc1ccc(Cl)cc1NC(=O)N1CCc2cc(S(=O)(=O)N3CCC(C)CC3)ccc21", "activity change, negative = growth inhibition": "inactive: -26%"},
      {"compound": "Cc1cccc(-n2ncc3c(N4CCN(CCO)CC4)ncnc32)c1", "Potency": "inconclusive [inhibitor, partial curve, poor fit]"},
      {"compound": "Nc1nc(SCC(=O)N2N=C(c3ccc(Cl)cc3)CC2c2ccco2)n[nH]1", "note": "(stereo not given)", "Potency": "inconclusive [inhibitor, single point]"},
      {"compound": "CC(C)c1ccc(NC(=S)NCCc2c[nH]c3ccccc23)cc1", "Potency": "inconclusive [inhibitor, single point]"},
      {"compound": "COc1cccc(C(=O)Nc2ccc(-c3nnc(-c4ccco4)o3)cc2)c1", "Potency": "inconclusive [inhibitor, single point]"},
      {"compound": "COc1ccc(C(=O)N2CCC3(CC2)CN(Cc2ccc(C#N)cc2)C3)cc1", "Potency": "inconclusive [inhibitor, single point]"},
      {"compound": "CCc1cccc(NC(=O)NC(=O)Cn2nnc(C(=O)OC)c2C(=O)OC)c1", "activity change, negative = growth inhibition": "inactive: -8.49%"},
      {"compound": "O=C(NC(=S)Nc1ccc(S(=O)(=O)Nc2ncccn2)cc1)c1ccc(Br)cc1", "Potency": "inconclusive [inhibitor, single point]"},
      {"compound": "CCOC(=O)c1cc(-c2ccc(OC)cc2)n(CCC(=O)Nc2ccc(OC)cc2OC)c1C", "Potency": "active: 20.6 µM"},
      {"compound": "COc1cc(C(=O)NCC(c2ccccc2)N(C)C)ccc1OCc1c(C)noc1C", "note": "(stereo not given)", "Potency": "active: 16.4 µM"},
      {"compound": "CC(C)=CCN1CCN(Cc2ccc(C#CC(C)(C)O)cc2)CC1CCO", "note": "(stereo not given)", "Potency": "inconclusive [inhibitor, partial curve]"},
      {"compound": "CCOc1ccc(/C=C/c2nc3ccccc3n2S(=O)(=O)c2cccc(Cl)c2)cc1", "Potency": "active: 7.31 µM"},
      {"compound": "Cc1cccc(NC(NC(=O)Cc2ccccc2)C(Cl)(Cl)Cl)c1", "note": "(stereo not given)", "Potency": "active: 18.4 µM"},
      {"compound": "COc1ccccc1CNC(=O)c1ccc(Nc2nc3ccccc3n3nnnc23)cc1", "Potency": "inconclusive [inhibitor, single point]"},
      {"compound": "CN(Cc1cccc(F)c1)C(=O)CNS(=O)(=O)c1ccc2ccccc2c1", "activity change, negative = growth inhibition": "inactive: -7.45%"},
      {"compound": "CN(C)S(=O)(=O)c1ccc(C(=O)NCCSc2ccc(Br)cc2)cc1", "Potency": "inconclusive [inhibitor, single point]"},
      {"compound": "Cc1ccc(Oc2ccccc2)c(NC=O)c1", "activity change, negative = growth inhibition": "inconclusive: -32.2% [inhibitor]"},
      {"compound": "Cc1nn(CC(=O)Nc2sc3c(c2C#N)CCC(C(C)(C)C)C3)c(C)c1[N+](=O)[O-]", "note": "(stereo not given)", "Potency": "active: 25.9 µM"},
      {"compound": "O=C(CNC(=O)N1CC(=O)Nc2ccccc21)NCc1ccccc1Cl", "activity change, negative = growth inhibition": "inactive: -10.8%"},
      {"compound": "CCOC(=O)c1c(-c2cccs2)csc1NC(=O)CC(C)C", "Potency": "active: 18.4 µM"},
      {"compound": "CCOc1ccc(N(CC(=O)N2CCN(c3ccc(F)cc3)CC2)S(=O)(=O)c2c(C)noc2C)cc1", "Potency": "active: 25.9 µM"},
      {"compound": "COc1ccc(CN2CCN(Cc3c[nH]c4ccccc34)CC2)cc1OC", "activity change, negative = growth inhibition": "inactive: -28.9%"},
      {"compound": "COc1ccccc1N1CCN(c2nc3ccccn3c(=O)c2C=O)CC1", "activity change, negative = growth inhibition": "inactive: -16.3%"},
      {"compound": "CCN(CC)CCN(Cc1cc2cc(C)ccc2[nH]c1=O)C(=O)Nc1ccccc1OC", "Potency": "inconclusive [inhibitor, partial curve]"},
      {"compound": "COCc1nc(-c2ccc(-c3ccccc3)nc2OC)no1", "activity change, negative = growth inhibition": "inactive: 0.644%"},
      {"compound": "CC(C)(C)OC(=O)N(Cc1ccccc1)Cc1ccccc1OCc1ccc(NC(=O)C2CCC2)cc1", "Potency": "active: 18.4 µM"},
      {"compound": "COc1cccc(-c2nc(SCC(=O)NC3CCCC3)c(-c3ccc(F)cc3)[nH]2)c1", "Potency": "inconclusive [inhibitor, single point]"},
      {"compound": "CC(C)(C)c1cc(C(=O)NCCCn2ccnc2)cc(C(C)(C)C)c1", "Potency": "inconclusive [inhibitor, single point]"},
      {"compound": "O=[N+]([O-])c1cc(-c2cnc3ccccc3n2)ccc1Oc1ccc(Cl)cc1", "Potency": "active: 18.4 µM"},
      {"compound": "COc1ccc(C2CC(C(F)(F)F)n3nc(C(N)=O)c(Cl)c3N2)cc1OC", "note": "(stereo not given)", "activity change, negative = growth inhibition": "inactive: -26.6%"},
      {"compound": "COc1ccc(NC(=S)NCc2ccc(Cl)cc2)c(OC)c1", "Potency": "inconclusive [inhibitor, single point]"},
      {"compound": "C=CCn1c(SCC(=O)c2ccc(O)c(O)c2)nnc1-c1ccc(OC)cc1", "Potency": "active: 20.6 µM"},
      {"compound": "NC(=S)N=Nc1c(O)[nH]c2ccc(F)cc12", "Potency": "inconclusive [inhibitor, partial curve]"},
      {"compound": "O=C(NCCC1CCCCN1S(=O)(=O)c1ccccc1)C(=O)Nc1ccccc1F", "note": "(stereo not given)", "Potency": "active: 18.4 µM"},
      {"compound": "CCCCNC(=O)C1(C)CCCCN1Cc1ccccc1-c1ccccc1", "note": "(stereo not given)", "Potency": "inconclusive [inhibitor, single point]"},
      {"compound": "COc1ccccc1CNC(=O)COc1ccc(S(=O)(=O)N2CCCC2)cc1", "activity change, negative = growth inhibition": "inconclusive: -31% [inhibitor]"},
      {"compound": "CC1CN(S(=O)(=O)c2cccc(C(=O)Nc3ccc4c(c3)CCC4)c2)CC(C)O1", "note": "(stereo not given)", "Potency": "active: 1.16 µM"},
      {"compound": "COc1cc(=O)n2c(c1C(=O)N(C)Cc1nonc1C)CCN(Cc1ccccc1Cl)CC2", "activity change, negative = growth inhibition": "inactive: 4.75% [at 9.04 µM]"},
      {"compound": "CCN(CC(=O)Nc1c(F)cccc1F)C(=O)Cc1ccc2c(c1)CCC2", "activity change, negative = growth inhibition": "inactive: -19.9%"},
      {"compound": "CC(Sc1nnc(NCc2ccccc2)s1)C(=O)Nc1ccc2c(c1)C(=O)c1ccccc1C2=O", "note": "(stereo not given)", "Potency": "inconclusive [inhibitor, single point]"},
      {"compound": "O=C(NCc1ccccc1F)C(=O)NCC1CCCN1S(=O)(=O)c1ccccc1", "note": "(stereo not given)", "Potency": "inconclusive [inhibitor, single point]"},
      {"compound": "O=CC1=C(c2ccccc2)Oc2ccccc2O1", "Potency": "inconclusive [inhibitor, single point]"},
      {"compound": "COc1cc(Cl)c(C)cc1NS(=O)(=O)c1c(C)nc2sccn2c1=O", "Potency": "inconclusive [inhibitor, single point]"},
      {"compound": "Fc1ccc(N=c2ssnc2Cl)c(F)c1", "Potency": "active: 7.31 µM"},
      {"compound": "COC(=O)c1ccc(Nc2ncnc3c2cnn3-c2ccccc2)cc1", "activity change, negative = growth inhibition": "inactive: -2.4%"},
      {"compound": "CCOC(=O)CCn1cnc2onc(-c3ccccc3Cl)c2c1=O", "activity change, negative = growth inhibition": "inactive: 6.96%"},
      {"compound": "O=C(c1ccc(F)cc1)n1c(NCc2ccccc2)n[nH]c1=S", "activity change, negative = growth inhibition": "inactive: 11.9%"},
      {"compound": "COCCN=c1scc(-c2ccccc2)n1/N=C/c1c[nH]c2ccccc12", "Potency": "inconclusive [inhibitor, partial curve, poor fit]"},
      {"compound": "Cc1ccc(/C=N/NC(=O)c2ccoc2C)s1", "Potency": "inconclusive [inhibitor, single point]"},
      {"compound": "CCOc1ccccc1NC(=O)C1=C(C)Nc2ncnn2C1c1ccccn1", "note": "(stereo not given)", "activity change, negative = growth inhibition": "inactive: -1.07%"},
      {"compound": "O=C(Nc1cccnc1)c1ccc(Br)s1", "Potency": "inconclusive [inhibitor, partial curve]"},
      {"compound": "CCOC(=O)C1(C)C=C(Nc2cccc(C)c2)C(=O)N1c1ccccc1", "note": "(stereo not given)", "Potency": "inconclusive [inhibitor, single point]"},
      {"compound": "Cc1ccc(-n2c(SCc3cn4ccsc4n3)nc3ccccc3c2=O)cc1", "Potency": "inconclusive [inhibitor, single point]"},
      {"compound": "Cc1ccc(CNC(=O)c2nc(S(=O)(=O)Cc3ccc(C)cc3)ncc2Cl)cc1", "Potency": "active: 5.8 µM"},
      {"compound": "CCOC(=O)N1CCN(C(=O)CNS(=O)(=O)c2c(C)cc(C)cc2C)CC1", "activity change, negative = growth inhibition": "inactive: -6.79%"},
      {"compound": "COc1cc(NC(=O)CCc2c(C)nc3c4c(C)cc(C)nc4nn3c2C)cc(OC)c1", "Potency": "inconclusive [inhibitor, single point]"},
      {"compound": "COc1ccc(S(=O)(=O)N2CCC(C(=O)Nc3ccc(OC)c(OC)c3)CC2)cc1C", "activity change, negative = growth inhibition": "inactive: -13.8%"},
      {"compound": "O=c1cnc2cncnc2n1Cc1ccccc1", "Potency": "active: 5.8 µM"},
      {"compound": "Cc1cccc(C(=O)Nc2sc(C)c(-c3ccccc3)c2C#N)c1", "Potency": "inconclusive [inhibitor, single point]"},
      {"compound": "Cc1cc2ccccc2nc1SCC(=O)Nc1nc(-c2ccccc2)cs1", "Potency": "inconclusive [inhibitor, partial curve]"},
      {"compound": "Cc1nnsc1Sc1ccccc1", "activity change, negative = growth inhibition": "inactive: -3.42%"},
      {"compound": "CC(C)n1ncc2c(C(=O)N3CCN(Cc4ccc(Cl)s4)CC3)cc(C3CC3)nc21", "Potency": "inconclusive [inhibitor, single point]"},
      {"compound": "CCc1ccccc1NC(=O)c1cnc2scc(C)n2c1=O", "Potency": "inconclusive [inhibitor, single point]"},
      {"compound": "COc1ccc(NC(=O)CN(c2ccccc2OC)S(C)(=O)=O)c(OC)c1", "activity change, negative = growth inhibition": "inactive: -1.16%"},
      {"compound": "O=C1c2[nH]nc(-c3ccccc3O)c2C(c2ccc(Cl)cc2)N1CCc1ccccc1", "note": "(stereo not given)", "Potency": "active: 20.6 µM"},
      {"compound": "CCOC(=O)c1c(C)oc2c1c(C(c1ccccc1)N1CCOCC1)c(O)c1ccccc12", "note": "(stereo not given)", "Potency": "inconclusive [inhibitor, single point]"},
      {"compound": "COc1nc(C)ccc1-c1noc(-c2cccs2)n1", "activity change, negative = growth inhibition": "inactive: -4.17%"},
      {"compound": "Cc1c(C)n(-c2ccc(Cl)cc2)c2ncnc(N)c12", "Potency": "inconclusive [inhibitor, partial curve]"},
      {"compound": "CC1CCN(S(=O)(=O)N2CCC(C(=O)NCc3cccnc3)CC2)CC1", "activity change, negative = growth inhibition": "inactive: -26.2%"},
      {"compound": "c1ccc(C2Nc3ccccc3C3OCCCC23)cc1", "note": "(stereo not given)", "Potency": "inconclusive [inhibitor, single point]"},
      {"compound": "CC(C)c1ccc(NC(=O)C(NS(=O)(=O)c2ccc3c(c2)CCC(=O)N3)c2ccccc2)cc1", "note": "(stereo not given)", "Potency": "active: 20.6 µM"},
      {"compound": "CCOCN(C(=O)Cn1c(CC(C)C)nc2ccccc21)c1c(C)cccc1CC", "Potency": "inconclusive [inhibitor, single point]"}
    ]}
  ]
}
